# Results as given in PMC4336329 (PLoS ONE, 2015).
# Screen size: about 310,000 compounds; about 2,200 (0.71%) showed an effect of 50% or more. Effects have a minus sign here. The list shows a part of the results.
# Target: human ether-à-go-go-related gene (hERG) potassium channel (human, UniProt Q12809)
# Assay: primary screen, population patch clamp on CHO cells stably expressing hERG
# Sequence of human ether-à-go-go-related gene (hERG) potassium channel (Q12809 whole entry, looked up): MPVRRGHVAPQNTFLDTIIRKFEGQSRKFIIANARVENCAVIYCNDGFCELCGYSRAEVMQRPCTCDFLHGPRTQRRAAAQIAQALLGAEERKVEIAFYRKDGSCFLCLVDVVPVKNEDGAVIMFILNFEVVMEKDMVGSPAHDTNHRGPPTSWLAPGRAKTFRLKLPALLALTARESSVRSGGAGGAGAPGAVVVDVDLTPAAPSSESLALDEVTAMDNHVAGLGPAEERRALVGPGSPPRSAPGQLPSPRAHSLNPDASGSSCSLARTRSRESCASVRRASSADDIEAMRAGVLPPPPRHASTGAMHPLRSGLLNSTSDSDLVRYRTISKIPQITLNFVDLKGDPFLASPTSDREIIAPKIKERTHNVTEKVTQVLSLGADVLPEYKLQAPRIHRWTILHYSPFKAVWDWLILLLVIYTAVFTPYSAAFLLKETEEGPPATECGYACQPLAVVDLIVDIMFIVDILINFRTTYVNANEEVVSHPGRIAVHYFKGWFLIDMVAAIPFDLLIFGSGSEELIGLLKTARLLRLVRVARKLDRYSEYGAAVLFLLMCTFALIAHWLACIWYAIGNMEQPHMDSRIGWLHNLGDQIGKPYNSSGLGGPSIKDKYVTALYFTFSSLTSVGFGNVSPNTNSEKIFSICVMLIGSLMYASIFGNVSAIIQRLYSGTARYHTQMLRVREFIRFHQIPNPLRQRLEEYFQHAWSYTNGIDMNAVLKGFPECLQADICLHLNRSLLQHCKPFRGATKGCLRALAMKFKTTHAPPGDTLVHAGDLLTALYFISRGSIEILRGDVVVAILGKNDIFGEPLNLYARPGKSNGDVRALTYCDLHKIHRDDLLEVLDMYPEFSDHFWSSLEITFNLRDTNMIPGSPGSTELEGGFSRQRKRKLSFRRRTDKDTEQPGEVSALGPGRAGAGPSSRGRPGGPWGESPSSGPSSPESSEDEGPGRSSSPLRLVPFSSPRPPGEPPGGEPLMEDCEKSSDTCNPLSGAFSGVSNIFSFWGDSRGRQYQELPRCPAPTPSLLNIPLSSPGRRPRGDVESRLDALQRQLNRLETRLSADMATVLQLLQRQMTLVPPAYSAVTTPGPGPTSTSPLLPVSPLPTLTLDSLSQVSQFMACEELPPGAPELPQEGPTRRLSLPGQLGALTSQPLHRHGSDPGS
row,SMILES,"hERG current change (%, negative = inhibition) at 1uM [%]"
1,Cc1c(Nc2nc3ccccc3nc2NS(=O)(=O)c2cccs2)c(=O)n(-c2ccccc2)n1C,0.391
2,Cc1ccc(S(=O)(=O)NCCCCCC(=O)Nc2ccccc2)cc1,4.13
3,CC1(C)CC(=O)c2cc3c(nc2C1)CC(C)(C)CC3=O,6.3
4,CCOC(=O)CCCNC(=O)CCNC(=O)c1ccc(OCC(C)C)cc1,8.96
5,COC(=O)C1=C(SC)N(c2ccc(OC)cc2)C(c2ccccc2)CC1=O (stereo not shown),-3.13
6,N=C1C=CC=C2C1=NC1(CCCCC1)N2O,12.5
7,O=C(Nc1nccs1)c1cc(-c2ccccn2)nc2c(Cl)cccc12,7.21
8,Cc1ccc2nsnc2c1-n1c(C)nc2ccccc2c1=O,13
9,C=CCn1c(O)c(C=NCCN2CCNCC2)c(=O)[nH]c1=O,10.3
10,COc1ccc(N(CC(O)CN2CCOCC2)S(=O)(=O)c2ccccc2)cc1 (stereo not shown),12.1
11,COc1ccc(NS(=O)(=O)c2cc(NC(=O)C3CC3)ccc2N2CCCCC2)cc1,10.2
12,Cc1cccc(OCC(=O)Nc2ccccc2N2CCN(C(=O)C(C)C)CC2)c1C,4.26
13,COC(=O)c1cccc(NC(=O)c2cc3ccccc3o2)c1,5.16
14,Clc1ccc(OCCSCc2nc3ccccc3[nH]2)cc1,-0.246
15,COc1cccc(N2C(=O)C3CCCN3C2c2ccc(N(C)C)cc2)c1 (stereo not shown),6.82
16,O=C(CNC(=O)C(c1ccccc1)c1ccccc1)N/N=C/c1ccc(O)cc1O,-4.92
17,OCC[C@@H]1C[C@@H](O)[C@H](O)[C@@]2(CCCO2)O1,5.71
18,COc1ccc(/C(O)=C2/C(=O)C(=O)N(CCCN3CCOCC3)C2c2ccc(C)cc2)cc1 (stereo not shown),20
19,CC1=C(C(=O)Nc2ccccn2)C(c2ccc(F)cc2)n2ncnc2N1 (stereo not shown),7.26
20,Cc1cccc(N2CC(C(=O)NCC3COc4ccccc4O3)CC2=O)c1C (stereo not shown),1.12
21,COc1ccc(C(=O)CSc2ccc3nnc(-c4cccnc4)n3n2)cc1,-5.91
22,CC(=O)/C(C(=N)N1CCN(C(c2ccccc2)c2ccccc2)CC1)=C(\C)O,4.08
23,C=CCc1cc(Cl)ccc1OCCn1ccnc1.O=C(O)C(=O)O,4.9
24,COc1ccc(-c2nn[nH]n2)cc1OC,12.2
25,N#CCCN(CCC#N)S(=O)(=O)c1ccc(C(=O)Nc2nnc(C3=COCCO3)o2)cc1,14.9
